Experimental data from the supplement of paper PMC4604168 (melanoma cell lines).
This is one part of the list. Most values come without repeats; read them as rough.

These compounds were tested on A2058 (assay: cell count relative to DMSO control; melanoma cells; higher = more viable cells). Conditions: library dose: standard library concentration; 72 h.
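Also: cells treated in 1,536-well plates, then fixed and DAPI-stained, with nuclei counted from automated high-throughput microscope images.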

Row | Compound | cell count [%]
1 | O=C(Nc1cc(C(F)(F)F)cc(C(F)(F)F)c1)c1cc(Cl)ccc1O + CS(=O)(=O)c1ccc(C(=O)Nc2ccc(Cl)c(-c3ccccn3)c2)c(Cl)c1 [vismodegib] (first compound 0.08 µM, partner dose 5 µM) | 92.7
2 | O=C(Nc1cc(C(F)(F)F)cc(C(F)(F)F)c1)c1cc(Cl)ccc1O + CN(C)S(=O)(=O)c1ccc2c(c1)/C(=C/c1cc3c([nH]1)CCCC3)C(=O)N2 [SU6656] (first compound 0.08 µM, partner dose 2 µM) | 88.1
3 | O=C(O)c1ccc2c(c1)nc(Nc1cccc(Cl)c1)c1ccncc12 + COc1cc2c(Oc3ccc4[nH]c(C)cc4c3F)ncnc2cc1OCCCN1CCCC1 [cediranib] (first compound 2 µM, partner dose 2 µM) | 69.8
4 | O=C(Nc1cc(C(F)(F)F)cc(C(F)(F)F)c1)c1cc(Cl)ccc1O + Cn1nnc2c(C(N)=O)ncn2c1=O [temozolomide] (first compound 0.08 µM, partner dose 10 µM) | 41.9
5 | O=C(O)c1ccc2c(c1)nc(Nc1cccc(Cl)c1)c1ccncc12 + C=C(c1ccc(C(=O)O)cc1)c1cc2c(cc1C)C(C)(C)CCC2(C)C [Bexarotene] (first compound 2 µM, partner dose 10 µM) | 77
6 | O=C(Nc1cc(C(F)(F)F)cc(C(F)(F)F)c1)c1cc(Cl)ccc1O + CCCCCCCCCCCC1=C(O)C(=O)C=C(O)C1=O [Embelin] (first compound 0.08 µM, partner dose 6 µM) | 88.9
7 | O=C(Nc1cc(C(F)(F)F)cc(C(F)(F)F)c1)c1cc(Cl)ccc1O + CCCCCCCCCCCCCCCCCCOP(=O)([O-])OC1CC[N+](C)(C)CC1 [Perifosine] (first compound 0.08 µM, partner dose 2 µM) | 88.9
8 | O=C(Nc1cc(C(F)(F)F)cc(C(F)(F)F)c1)c1cc(Cl)ccc1O + C#Cc1cccc(Nc2ncnc3cc(OCCOC)c(OCCOC)cc23)c1 [erlotinib] (first compound 0.08 µM, partner dose 4 µM) | 80.9
9 | Cn1nnc2c(C(N)=O)ncn2c1=O [temozolomide] + OCCn1cc(-c2cnc3nnn(Cc4ccc5ncccc5c4)c3n2)cn1 [PF04217903] (first compound 10 µM, partner dose 5 µM) | 64.5
10 | O=C(O)[C@@H]1[O][Sb](=[O])([O][Sb]2(=[O])[O][C@H]([C@H](O)CO)[C@H](O)[C@H](C(=O)O)[O]2)[O][C@H]([C@H](O)CO)[C@@H]1O (stereo not given in full) [stibogluconate] + Cn1nnc2c(C(N)=O)ncn2c1=O [temozolomide] (first compound 10 µM, partner dose 10 µM) | 44.9
11 | O=C(Nc1cc(C(F)(F)F)cc(C(F)(F)F)c1)c1cc(Cl)ccc1O + COc1ccc(Cl)c(Nc2nc3ccccc3nc2NS(=O)(=O)c2cccc(NC(=O)C(C)(C)N)c2)c1 [XL147] (first compound 0.08 µM, partner dose 4 µM) | 85.6
12 | O=C(Nc1cc(C(F)(F)F)cc(C(F)(F)F)c1)c1cc(Cl)ccc1O + Cc1cc(Nc2cc(N3CCN(C)CC3)nc(/C=C/c3ccccc3)n2)n[nH]1 [ENMD2076] (first compound 0.08 µM, partner dose 0.2 µM) | 89.5
13 | O=C(O)[C@@H]1[O][Sb](=[O])([O][Sb]2(=[O])[O][C@H]([C@H](O)CO)[C@H](O)[C@H](C(=O)O)[O]2)[O][C@H]([C@H](O)CO)[C@@H]1O (stereo not given in full) [stibogluconate] + COc1cc2c(Oc3ccc4[nH]c(C)cc4c3F)ncnc2cc1OCCCN1CCCC1 [cediranib] (first compound 10 µM, partner dose 2 µM) | 84.7
14 | O=C(Nc1cc(C(F)(F)F)cc(C(F)(F)F)c1)c1cc(Cl)ccc1O + CO[C@@H]1[C@H](N(C)C(=O)c2ccccc2)C[C@H]2O[C@]1(C)n1c3ccccc3c3c4c(c5c6ccccc6n2c5c31)C(=O)NC4 [Midostaurin] (first compound 0.08 µM, partner dose 0.4 µM) | 56.1
15 | O=C(O)[C@@H]1[O][Sb](=[O])([O][Sb]2(=[O])[O][C@H]([C@H](O)CO)[C@H](O)[C@H](C(=O)O)[O]2)[O][C@H]([C@H](O)CO)[C@@H]1O (stereo not given in full) [stibogluconate] + CN(NC(=O)CC(=O)NN(C)C(=S)c1ccccc1)C(=S)c1ccccc1 [STA4783] (first compound 10 µM, partner dose 0.03 µM) | 11.8
16 | O=C(Nc1cc(C(F)(F)F)cc(C(F)(F)F)c1)c1cc(Cl)ccc1O + OCCn1cc(-c2cnc3nnn(Cc4ccc5ncccc5c4)c3n2)cn1 [PF04217903] (first compound 0.08 µM, partner dose 5 µM) | 99.9
17 | Cc1cc(N2CCOCC2)cc2[nH]c(-c3c(NC[C@@H](O)c4cccc(Cl)c4)cc[nH]c3=O)nc12 + CN(C)S(=O)(=O)c1ccc2c(c1)/C(=C/c1cc3c([nH]1)CCCC3)C(=O)N2 [SU6656] (first compound 1 µM, partner dose 2 µM) | 64
18 | O=C(O)[C@@H]1[O][Sb](=[O])([O][Sb]2(=[O])[O][C@H]([C@H](O)CO)[C@H](O)[C@H](C(=O)O)[O]2)[O][C@H]([C@H](O)CO)[C@@H]1O (stereo not given in full) [stibogluconate] + COc1cc(Nc2ncc(F)c(Nc3ccc4c(n3)NC(=O)C(C)(C)O4)n2)cc(OC)c1OC [Tamatinib] (first compound 10 µM, partner dose 2 µM) | 76.8
19 | O=C(Nc1cc(C(F)(F)F)cc(C(F)(F)F)c1)c1cc(Cl)ccc1O + Cc1ccc(NC(=O)c2cccc(N(C)C)c2)cc1NC(=O)c1ccc(O)cc1 [ZM336372] (first compound 0.08 µM, partner dose 10 µM) | 89.5
20 | O=C(O)c1ccc2c(c1)nc(Nc1cccc(Cl)c1)c1ccncc12 + Nc1nc(F)nc2c1ncn2[C@@H]1O[C@H](CO)[C@@H](O)[C@@H]1O [fludarabine] (first compound 2 µM, partner dose 1 µM) | 63.8
21 | Cn1nnc2c(C(N)=O)ncn2c1=O [temozolomide] + Cc1cc(N2CCOCC2)cc2[nH]c(-c3c(NC[C@@H](O)c4cccc(Cl)c4)cc[nH]c3=O)nc12 [BMS536924] (first compound 10 µM, partner dose 1 µM) | 51.2
22 | O=C(O)[C@@H]1[O][Sb](=[O])([O][Sb]2(=[O])[O][C@H]([C@H](O)CO)[C@H](O)[C@H](C(=O)O)[O]2)[O][C@H]([C@H](O)CO)[C@@H]1O (stereo not given in full) [stibogluconate] + NC(=O)Nc1cc(-c2cccc(F)c2)sc1C(=O)N[C@H]1CCCNC1 [AZD7762] (first compound 10 µM, partner dose 0.1 µM) | 72
23 | O=C(O)[C@@H]1[O][Sb](=[O])([O][Sb]2(=[O])[O][C@H]([C@H](O)CO)[C@H](O)[C@H](C(=O)O)[O]2)[O][C@H]([C@H](O)CO)[C@@H]1O (stereo not given in full) [stibogluconate] + COc1ccc(Cl)c(Nc2nc3ccccc3nc2NS(=O)(=O)c2cccc(NC(=O)C(C)(C)N)c2)c1 [XL147] (first compound 10 µM, partner dose 4 µM) | 136
24 | Cn1nnc2c(C(N)=O)ncn2c1=O [temozolomide] + O=C(O)c1ccc(-c2c[nH]c3ncc(-c4ccccc4)cc23)cc1C1CCCC1 [GSK650394] (first compound 10 µM, partner dose 0.8 µM) | 45.2
25 | Cn1nnc2c(C(N)=O)ncn2c1=O [temozolomide] + CCN(CC)CCCCNc1ncc2cc(-c3cc(OC)cc(OC)c3)c(NC(=O)NC(C)(C)C)nc2n1 [PD173074] (first compound 10 µM, partner dose 0.5 µM) | 53.5
26 | O=C(O)[C@@H]1[O][Sb](=[O])([O][Sb]2(=[O])[O][C@H]([C@H](O)CO)[C@H](O)[C@H](C(=O)O)[O]2)[O][C@H]([C@H](O)CO)[C@@H]1O (stereo not given in full) [stibogluconate] + OCc1c[nH]c2ccccc12 [Indole-3-carbinol] (first compound 10 µM, partner dose 4 µM) | 83.7
27 | Cn1nnc2c(C(N)=O)ncn2c1=O [temozolomide] + O=C(Nc1cccc(Cl)c1)Nc1ncc(CCNc2ncnc3ccsc23)s1 [SNS314] (first compound 10 µM, partner dose 0.004 µM) | 55.8
28 | O=C(Nc1cc(C(F)(F)F)cc(C(F)(F)F)c1)c1cc(Cl)ccc1O + Cc1cc(N2CCOCC2)cc2[nH]c(-c3c(NC[C@@H](O)c4cccc(Cl)c4)cc[nH]c3=O)nc12 [BMS536924] (first compound 0.08 µM, partner dose 1 µM) | 81.2
29 | O=C(O)c1ccc2c(c1)nc(Nc1cccc(Cl)c1)c1ccncc12 + Cn1cncc1[C@@](N)(c1ccc(Cl)cc1)c1ccc2c(c1)c(-c1cccc(Cl)c1)cc(=O)n2C [tipifarnib] (first compound 2 µM, partner dose 0.05 µM) | 57.8
30 | Cc1cc(N2CCOCC2)cc2[nH]c(-c3c(NC[C@@H](O)c4cccc(Cl)c4)cc[nH]c3=O)nc12 + COc1cc2c(Oc3ccc4[nH]c(C)cc4c3F)ncnc2cc1OCCCN1CCCC1 [cediranib] (first compound 1 µM, partner dose 2 µM) | 89.3
